In article PMC6919601, “Identification of Plasmodium dipeptidyl aminopeptidase allosteric inhibitors by high throughput screening” (PLoS ONE, 2019):
The whole screen tested about 110,000 compounds, of which about 230 (0.21%) showed an effect of 50% or more. This is one part of the list.

Target: DPAP1 (Plasmodium falciparum, UniProt Q8IIJ9)
Test: primary screen, percent inhibition; read by cleavage of a fluorogenic dipeptide substrate; higher = more effect of the substance
Parameters: species or system P. falciparum D10 trophozoite lysates; single well
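Note: 30 min substrate incubation versus DMSO and 10 µM JCP410 controls.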

DPAP1, sequence (Q8IIJ9 whole entry, looked up): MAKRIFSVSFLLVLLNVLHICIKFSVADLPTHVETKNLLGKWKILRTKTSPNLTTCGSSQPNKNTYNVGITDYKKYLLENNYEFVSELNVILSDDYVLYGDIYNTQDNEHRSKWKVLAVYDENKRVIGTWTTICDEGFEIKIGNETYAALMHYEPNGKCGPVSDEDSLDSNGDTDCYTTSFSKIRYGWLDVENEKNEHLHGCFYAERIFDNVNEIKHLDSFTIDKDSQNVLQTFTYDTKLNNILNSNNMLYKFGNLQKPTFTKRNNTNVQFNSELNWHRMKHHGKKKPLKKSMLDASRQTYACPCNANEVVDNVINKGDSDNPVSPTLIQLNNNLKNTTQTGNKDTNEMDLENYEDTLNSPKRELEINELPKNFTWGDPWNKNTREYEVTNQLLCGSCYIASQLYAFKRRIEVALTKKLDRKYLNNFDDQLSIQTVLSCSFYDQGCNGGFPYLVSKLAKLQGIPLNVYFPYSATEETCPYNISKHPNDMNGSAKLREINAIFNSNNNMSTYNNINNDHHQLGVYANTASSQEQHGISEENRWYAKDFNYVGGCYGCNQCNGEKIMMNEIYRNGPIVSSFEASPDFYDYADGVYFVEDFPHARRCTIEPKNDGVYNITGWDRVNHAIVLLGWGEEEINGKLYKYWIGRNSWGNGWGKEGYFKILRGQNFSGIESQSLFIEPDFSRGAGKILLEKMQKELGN

SMILES | % Inhibition @ 10 uM [%]
CCN(CCN(C)C)Cc1c(F)cccc1Cl | -2.34
Cc1nc2ccc(S(=O)(=O)NCC(=O)NC(C)c3ccccc3)cc2s1 (centres unmarked) | 2.37
Cc1ccc(NC(=O)c2cc3c(C)nn(-c4ccccc4)c3s2)c(C)c1 | -1.75
CCc1cccc(C)c1NC(=O)c1ccccc1Br | -4.4
COCCNC(=O)Cn1ncc2c3ccccc3n(Cc3cc(C)ccc3C)c2c1=O | 4.95
CCCC(=O)c1c(NCCc2ccccc2)cc(C)oc1=O | 2.47
Cc1ccc(C)c(N(CC(=O)Nc2ccc(Cl)cc2)S(C)(=O)=O)c1 | 0.00477
O=C(Nc1cccc(F)c1)Nc1ccc(Cl)c(Cl)c1 | 3
NS(=O)(=O)c1ccc(NC(=O)C2CC3CCC2C3)cc1 (centres unmarked) | -2.65
CCO/C(O)=C1\C(C)=NC(=S)NC1c1ccc(O)c(OC)c1 (centres unmarked) | 0.736
Cc1cccnc1NC(=O)c1c(O)nc2ccccc2c1O | 0.736
Cc1c(CNC2CCC(C)CC2)c(C(=O)O)c(C)n1Cc1cccc(Cl)c1 (centres unmarked) | 1.41
Cc1ccc(-n2c(C)cn3c4c(=O)n(C)c(=O)n(C)c4nc23)cc1 | 3.21
CCN1C(=O)/C(=C/c2cc(C)n(C)c2C)S/C1=N/c1ccc(OC)cc1 | -1.11
Cc1nc(C)c(C(=O)O)c(-c2ccco2)c1C(=O)O | 5.66
CC1CCN(CCCCCOc2cccc(Cl)c2)CC1 | -2.98
CCOC(=O)c1nnn(-c2nonc2N)c1CSc1nc2cccnc2[nH]1 | 2.18
COc1ccc(N(C(C)C(=O)Nc2ccc(C)cc2C)S(C)(=O)=O)cc1 (centres unmarked) | 0.389
Cc1ccc(NC(=O)c2sc3nc4ccccc4cc3c2N)cc1 | 5.66
COc1ccc(C(=O)CC(=O)C(=O)NCCc2ccc(Cl)cc2)cc1 | -1.03
Cc1cc(/C=C2/NC(=O)N(c3ccc(Cl)cc3)C2=O)c(C)n1-c1ccncc1 | -1.24
COc1ccc(CNC(=O)CCCn2nc(C)c3sc4ccccc4c3c2=O)cc1 | -6.99
Cc1ccc(CNC(=O)c2cc(=O)c3cc(Cl)ccc3o2)cc1 | -1.47
CC(C)c1ccc(/C=C(/C#N)c2nc(-c3cc4cc(Br)ccc4oc3=O)cs2)cc1 | 0.827
CCOc1ccccc1N1C(=O)c2ccc(Br)cc2C1=O | 2.69

SMILES | % Inhibition @ 10 uM [%]
OC(CN1CCCCC1)CN1c2ccccc2Sc2ccccc21 (centres unmarked) | -7.01
COc1cccc(NC(=O)C2=C(C)NC(=O)NC2c2ccc(Cl)cc2)c1 (centres unmarked) | -4.39
O=C1S/C(=C\c2ccccc2O)C(=O)N1Cc1ccc(F)cc1 | 21.2
C=CCC1Cc2ccccc2C(CC=C)N1 (centres unmarked) | 3.46
COc1ccc(NC(=O)COc2ccccc2)c([N+](=O)[O-])c1 | 3.05
C=CC1CN2CCC1CC2C(OC(=O)c1ccccc1)c1ccnc2ccccc12 (centres unmarked) | 3.34
CCCCn1c(C(C)NC(=O)COc2ccccc2)nc2ccccc21 (centres unmarked) | 13.2
O=C(/C=C/c1ccc2c(c1)OCO2)Nc1ccc2c(c1)OCO2 | 3.47
Cc1cc(C)c(C(=O)/C=C/c2ccc(Cl)cc2)c(O)n1 | -5.32
CC(C)COc1ccc(C(=O)N(Cc2ccccc2)c2ccccn2)cc1 | 0.366
Cc1ccc(CCn2c3c(c4ccccc42)CN(C)CC3)cn1 | 0.708
CCOc1ccc2nc(Nc3nc(C)c(C)c(O)n3)nc(C)c2c1 | 5.66
COc1ccccc1-n1nnc(-c2nc(-c3ccc4c(c3)OCO4)no2)c1N | -2.15
Cc1cccc(N(CC(=O)N2CCCCCC2)S(=O)(=O)c2ccccc2)c1 | -0.496
Cc1c(C(=O)/C=C/c2ccccc2F)c2cc(O)ccc2n1C | 0.78
COCCCNC(=O)c1cc(-c2ccncc2)nc2ccccc12 | 1.16
Cn1c(CS(=O)(=O)c2ccc(Cl)cc2)c(C#N)c2ccccc21 | 1.01
Cn1c2c(c(=O)n(C)c1=O)C(c1ccc(C(F)(F)F)cc1)CC(=O)N2 (centres unmarked) | -2.05
O=C(Nc1sc2c(c1C(=O)NCC1CCCO1)CCCC2)c1cc(=O)c2cc(Cl)ccc2o1 (centres unmarked) | -5.08
O=C(O)[C@H]1CCCC[C@H]1C(=O)NCCNC(=O)[C@@H]1CCCC[C@@H]1C(=O)O | 2.75
Cc1ccc2[nH]c3c(c2c1)CCN(C)C3 | -3.15
CCc1ccccc1N(CC(=O)Nc1cccnc1)S(=O)(=O)c1ccc(C)cc1 | 5.66
C=CCn1c(SCCCC)nc(O)c(CC)c1=O | -0.636
Cn1cc(CNC(=O)Cn2nc(C(F)(F)F)cc2C2CC2)cn1 | 0.431
CC(C)COC(=O)c1ccc2c(c1)C(=O)N(C1CCCCC1)C2=O | 0.343
